The source of these data is the supplement of paper PMC11417369.

± gives the standard deviation of the averaged measurements. This is one part of the list.

The test system of the assay is PfAP2-EXP AP2 domain (GST-tagged). The assay is described as follows: gcPBM binding intensity (ln(normalized median fluorescence intensity)); higher = stronger DNA binding. In short, it runs like this:
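DNA-binding domains from P. falciparum, fused to GST and produced in E. coli, were put on an Agilent 4 × 180k double-stranded probe array for 1 h in 1× PBS holding 1% milk, 0.2 mg/ml BSA, 0.5% salmon testes DNA and 0.03% Triton X-100. Probes were primer-extended, 36 bp long and drawn from intergenic genomic regions, with negative controls included. After Alexa488 anti-GST antibody detection and a 488 nm scan, binding intensity was set as the highest Masliner-normalised natural-log median intensity across replicate spots of either probe orientation.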
For “TTTTAATTAGAAATCATACACACATATATATATATA [CACACA_site174]”, the “gcPBM binding intensity (ln)” value was found to be 10 ± 0.26.

As to “ATTTTTAAAATAAATACATGCATATATTTATATGTT [TGCATGCA_site394]”, the “gcPBM binding intensity (ln)” value is 8.54 ± 0.37.

For “AAAAAAAAAGAGGCGTGTACATATATAATTTAAATT [XGTACX_site6827]”, the “gcPBM binding intensity (ln)” value was 8.81 ± 0.44.

Turning to “ATAATAGAAACAAACAGTACACATACCTAAAAGGAA [XGTACX_site8647]”, the “gcPBM binding intensity (ln)” value came out at 8.73 ± 0.6.

In the case of “TGTTCTAATATTTGTTGTACATTTACATTTCTCTCT [XGTACX_site2585]”, the “gcPBM binding intensity (ln)” value stood at 8.87 ± 0.45.

On to “TTATTAAAGTATAACTGTACATGCGAGTAAAAGAAT [XGTACX_site7388]”, for which the “gcPBM binding intensity (ln)” value is 9.44 ± 0.48.

In the case of “CATAAAATTGTATTTTGTACACATTTTGTATACATT [XGTACX_site5705]”, the “gcPBM binding intensity (ln)” value came out at 8.39 ± 0.28.

Consider “TATATATAGAAACACACACACATATATATATATATT [CACACA_site4115]”, for which the “gcPBM binding intensity (ln)” value amounted to 8.7 ± 0.37.

In the case of “ATTTACATAAACGTCTGTACTAATATACAATTTTCT [XGTACX_site1700]”, the “gcPBM binding intensity (ln)” value is 8.61 ± 0.38.

With “TATTATATATTTAATAGTACATATAAAATAATAAGG [XGTACX_site4823]”, the “gcPBM binding intensity (ln)” value is 8.57 ± 0.085.

For TGGTTTATTTATTAAGTGCATAAATGCAATATATAT, the “gcPBM binding intensity (ln)” value stood at 8.79 ± 0.18.

For “TACTATAACCCACATACACACAAAAAAAAAAAAAAA [CACACA_site4454]”, the “gcPBM binding intensity (ln)” value amounted to 8.14 ± 0.54.

As for “TATACAGATGGACACACACACATAAATAAATATATA [CACACA_site4863]”, the “gcPBM binding intensity (ln)” value is 8.78 ± 0.61.

“TTTATTTTTAACAGTGCACACATAACTTAATTATAT [CACACA_site8681]”: the “gcPBM binding intensity (ln)” value is 9.005 ± 0.021.

“ATATGAGTATAAAAATGTACGGAGCAACTAAATATA [XGTACX_site620]”: the “gcPBM binding intensity (ln)” value worked out at 9.2 ± 0.4.

Turning to “AAATAAAACAGACACACACACACATACACAAAAAAA [CACACA_site7753]”, the “gcPBM binding intensity (ln)” value came to 8.71 ± 0.51.

In the case of “TATAAATATGTATATGCATGTGGAATATATAATTAA [TGCATGCA_site226]”, the “gcPBM binding intensity (ln)” value came to 8.9 ± 0.23.

Consider “ATTACAACCACATTGACATGCAAATGTAGAGGGGGA [TGCATGCA_site694]”, for which the “gcPBM binding intensity (ln)” value turned out to be 9.81 ± 0.49.

Turning to “TGTCACCTATTTTTTTGTACGTATGTCCATTTTTTT [XGTACX_site4368]”, the “gcPBM binding intensity (ln)” value was determined as 8.94 ± 0.47.

“AAAAAATATAGATGCACACACAAAAAAACAAATTAA [CACACA_site6718]”: the “gcPBM binding intensity (ln)” value stood at 8.69 ± 0.54.

As for “TTAACTTCTTTAAAATGTACATATATTAAATAATAA [XGTACX_site3391]”, the “gcPBM binding intensity (ln)” value came to 8.3 ± 0.35.

Turning to “TTTATGTAATATACATGTACAGAATATAAAATATAT [XGTACX_site6906]”, the “gcPBM binding intensity (ln)” value was determined as 8.62 ± 0.32.

As to “AGATTTTGAAATTATAAAAAAATTTCACTTCATTTA [CACACA_negctrl_site888]”, the “gcPBM binding intensity (ln)” value is 7.96 ± 0.37.

Consider “ATATATATATATCAGAGTACATTCTTTAAAATATAT [XGTACX_site5915]”, for which the “gcPBM binding intensity (ln)” value came out at 9.98 ± 0.085.

Regarding “GTATTATTATTTTATGCATGTACATTGAATTATATT [TGCATGCA_site34]”, the “gcPBM binding intensity (ln)” value worked out at 9.19 ± 0.28.

Take “TATTCTTACATCACCTCACACATTTAATATTCCTTA [CACACA_site4693]”: the “gcPBM binding intensity (ln)” value was 8.8 ± 0.45.

For “AATCCTTACGAACACACACACACGAATAAATAAAAA [CACACA_site6363]”, the “gcPBM binding intensity (ln)” value came to 8.84 ± 0.59.

For “TAGAATTAAGTTATTGCACACAGGAAAAGTTTCATA [CACACA_site1634]”, the “gcPBM binding intensity (ln)” value came out at 8.47 ± 0.17.

For “ATAAATAAGAAAAATTGTACAATATTTTTTAGGATA [XGTACX_site3163]”, the “gcPBM binding intensity (ln)” value stood at 8.59 ± 0.36.

“TCTTCGAAACTATCACTCTCACAATTCATTTATTTT [TGCATGCA_negctrl_site156]”: the “gcPBM binding intensity (ln)” value came out at 8.76 ± 0.49.

Regarding “AACACATAAAAAAGGTGTACCATAAAATATACATAC [XGTACX_site4478]”, the “gcPBM binding intensity (ln)” value is 8.68 ± 0.24.

CTCATTTTTGTACAGGTGCACTTATCGTTACACTAT: the “gcPBM binding intensity (ln)” value is 9.61 ± 0.057.

Consider “ATATATATATATATATCATTTATTTAAAAATTTTTT [TGCATGCA_negctrl_site228]”, for which the “gcPBM binding intensity (ln)” value turned out to be 10.1 ± 0.3.

On to “TATTTTATCATTTTTTTTATGTCTTTATTTCACTTG [CACACA_negctrl_site1398]”, for which the “gcPBM binding intensity (ln)” value was 8.72 ± 0.47.

On to “ATATACATTAAATGAACACACATAAATAAATTACAT [CACACA_site2852]”, for which the “gcPBM binding intensity (ln)” value came to 8.53 ± 0.45.

For “TTTTAATTTTGTTGTTGTACAAATAACATGTGAGGG [XGTACX_site4401]”, the “gcPBM binding intensity (ln)” value turned out to be 9.14 ± 0.46.

In the case of “CTGTGTTTTGGTTGTACACACGCTACATTATATATT [CACACA_site5487]”, the “gcPBM binding intensity (ln)” value is 9.31 ± 0.18.

For the sequence “ATATACACATTAATAACACACAATATGATAACAAAT [CACACA_site7670]”, the “gcPBM binding intensity (ln)” value was found to be 8.79 ± 0.33.

For “GTGCATAAATCATACACACACACATATATAAATATA [CACACA_site7188]”, the “gcPBM binding intensity (ln)” value is 8.54 ± 0.45.

In the case of “GTGTTTTTATGTGAATGTACATATTTACTATCACAC [XGTACX_site2388]”, the “gcPBM binding intensity (ln)” value came out at 8.96 ± 0.22.

As for “AAAGTTTTTATAAAAAAAAAAATAAATACCATATAT [XGTACX_negctrl_site113]”, the “gcPBM binding intensity (ln)” value was 8.63 ± 0.48.

Consider “AAAAGTTTAAGTTTTCGAAAATTTACCAAAAAAAAA [CACACA_negctrl_site1644]”, for which the “gcPBM binding intensity (ln)” value was determined as 8.42 ± 0.48.

Turning to “TTACTTTAACCTTCTCGTACTTATTTACTTTATTCT [XGTACX_site7801]”, the “gcPBM binding intensity (ln)” value was determined as 9.05 ± 0.61.

Turning to “TTTTATTATTCTTCTCTCTTATATATATATATATAT [CACACA_negctrl_site646]”, the “gcPBM binding intensity (ln)” value was found to be 10.2 ± 0.26.

Regarding “TTTCAAAGGAAATGGTGTACACAATTTTTCCTTTTT [XGTACX_site2340]”, the “gcPBM binding intensity (ln)” value stood at 8.47 ± 0.23.

On to “TACTTTTATATGAATACACACAGGAATATATATATG [CACACA_site3568]”, for which the “gcPBM binding intensity (ln)” value was 8.5 ± 0.41.

For the sequence “ACTGTGGTATAAAGTTGTACATGTTTTTATATATTT [XGTACX_site5257]”, the “gcPBM binding intensity (ln)” value amounted to 8.65 ± 0.47.

On to “ATAACATAGGCAATCACACATATCATTAAGGTGTCA [CACACA_site5233]”, for which the “gcPBM binding intensity (ln)” value is 8.56 ± 0.37.

As to GTCTAAAAATAAAAAGTGCATTTGTTTAATATTTTG, the “gcPBM binding intensity (ln)” value was 8.5 ± 0.099.

On to “TATTATTATTATTATTTTAAAAGAAATAAAAATATG [XGTACX_negctrl_site119]”, for which the “gcPBM binding intensity (ln)” value is 8.1 ± 0.39.

As to “ATTAAAACAAATATGTGTACATAAAAATATATATAT [XGTACX_site8394]”, the “gcPBM binding intensity (ln)” value was 9.145 ± 0.035.

Consider “TTAATTTTTTTTTTTTGTACTCATATGTAATTCATC [XGTACX_site3071]”, for which the “gcPBM binding intensity (ln)” value came to 8.54 ± 0.57.

As for “TGATTGTATTAAAATGCACACATATCAAGAGGAATT [CACACA_site7985]”, the “gcPBM binding intensity (ln)” value amounted to 8.69 ± 0.34.

As for “TTAATAAATATGTTTACACACGAAAATACATTTTTT [CACACA_site8245]”, the “gcPBM binding intensity (ln)” value worked out at 8.22 ± 0.4.

“TTAAAAGTTATGGATACACACATATAAATATAGATT [CACACA_site7175]”: the “gcPBM binding intensity (ln)” value came out at 8.27 ± 0.4.

“TCGATTAAAACACAAAAATATAAATACATTGATAAA [TGCATGCA_negctrl_site523]”: the “gcPBM binding intensity (ln)” value worked out at 8.23 ± 0.43.

Turning to “TAATTTTCATAATTTTGTACTTAACGTTTTACCTTG [XGTACX_site8048]”, the “gcPBM binding intensity (ln)” value turned out to be 8.79 ± 0.45.
